Here are results for two molecules from PMC10073109.

The target of assay [1] is T1, GFP-NR2F2-Iso2 Leucine 231 to Alanine (Iso2-m1) (human) (UniProt P24468).
T1 sequence: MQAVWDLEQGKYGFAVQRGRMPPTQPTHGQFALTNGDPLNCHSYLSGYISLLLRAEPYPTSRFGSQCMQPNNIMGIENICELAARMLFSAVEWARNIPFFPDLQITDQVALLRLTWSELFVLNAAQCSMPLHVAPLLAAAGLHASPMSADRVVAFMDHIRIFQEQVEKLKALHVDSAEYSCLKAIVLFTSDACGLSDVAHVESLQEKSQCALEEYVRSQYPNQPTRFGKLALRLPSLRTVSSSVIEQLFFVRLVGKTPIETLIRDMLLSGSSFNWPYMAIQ
Kind of assay: co-IP; GFP Trap (ChromoTek) beads; 1 mg whole cell extract of MeWo cells transduced with GFP-NR2F2-Iso2 or its mutants (native or formaldehyde cross-linked, not told which), lysis buffer 10 mM Tris/HCl pH 7.5, 150 mM NaCl, 0.5 mM EDTA, 0.5% NP-40, overnight at 4 °C; western blot for endogenous NR2F2-Iso1. For orientation: A western blot detects proteins with antibodies after separation by electrophoresis.

The target in assay [2] is T2, GFP-NR2F2-Iso2 Leucine 232 to Alanine (Iso2-m2) (human) (UniProt P24468).
T2 sequence: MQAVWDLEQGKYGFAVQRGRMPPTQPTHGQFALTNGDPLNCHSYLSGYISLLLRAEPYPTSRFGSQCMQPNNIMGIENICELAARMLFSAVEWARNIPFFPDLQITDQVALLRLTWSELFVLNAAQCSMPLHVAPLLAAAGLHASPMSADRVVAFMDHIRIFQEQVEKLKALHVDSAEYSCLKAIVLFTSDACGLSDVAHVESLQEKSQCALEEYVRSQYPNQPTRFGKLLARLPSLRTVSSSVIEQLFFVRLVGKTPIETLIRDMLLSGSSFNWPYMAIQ
Described as above.

Assay [3] addresses T3, GFP-NR2F2-Iso2 (wild type) (human) (UniProt P24468).
T3 sequence: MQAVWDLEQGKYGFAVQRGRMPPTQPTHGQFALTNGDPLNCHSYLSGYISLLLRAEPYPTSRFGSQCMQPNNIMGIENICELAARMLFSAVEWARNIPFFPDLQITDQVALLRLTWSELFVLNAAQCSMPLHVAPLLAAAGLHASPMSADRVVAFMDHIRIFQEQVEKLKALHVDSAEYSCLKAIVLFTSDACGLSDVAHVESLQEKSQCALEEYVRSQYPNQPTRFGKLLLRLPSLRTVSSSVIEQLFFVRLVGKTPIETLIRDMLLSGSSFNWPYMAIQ
The description is as above.

Assay [4] has as its target T4, GFP-NR2F2-Iso2 Leucine 231 and Leucine 232 to Alanine (Iso2-m1m2) (human) (UniProt P24468).
T4 sequence: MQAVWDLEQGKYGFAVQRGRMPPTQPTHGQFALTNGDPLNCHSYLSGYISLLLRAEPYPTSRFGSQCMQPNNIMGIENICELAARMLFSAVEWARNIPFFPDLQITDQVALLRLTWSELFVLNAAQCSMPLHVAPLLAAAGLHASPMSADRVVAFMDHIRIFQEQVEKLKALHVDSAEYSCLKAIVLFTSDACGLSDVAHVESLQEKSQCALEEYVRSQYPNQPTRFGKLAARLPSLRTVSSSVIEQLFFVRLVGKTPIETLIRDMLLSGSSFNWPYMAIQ
Described as above.

Assay [5] concerns the target T5, Nuclear Receptor Subfamily 2 Group F, Member 2, isoform 1 (NR2F2-Iso1), full-length NR2F2 (human (endogenous in 4L and MeWo melanoma cells)) (UniProt P24468).
T5 sequence: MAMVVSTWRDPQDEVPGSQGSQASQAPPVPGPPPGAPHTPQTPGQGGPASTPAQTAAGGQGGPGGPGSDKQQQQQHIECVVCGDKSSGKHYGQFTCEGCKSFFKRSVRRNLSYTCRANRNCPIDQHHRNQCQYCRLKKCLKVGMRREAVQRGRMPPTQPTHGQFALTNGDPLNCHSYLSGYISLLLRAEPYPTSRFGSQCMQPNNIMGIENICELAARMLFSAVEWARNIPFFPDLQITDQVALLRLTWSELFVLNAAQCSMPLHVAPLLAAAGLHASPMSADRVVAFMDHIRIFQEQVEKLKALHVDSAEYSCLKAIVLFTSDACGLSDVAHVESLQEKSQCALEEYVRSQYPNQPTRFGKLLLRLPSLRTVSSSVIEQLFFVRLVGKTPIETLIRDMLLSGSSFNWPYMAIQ
Kind of assay: co-IP; NR2F2-Iso1 antibody (Abcam 41859 or Active Motif 61214) cross-linked with BS3 to Dynabeads Protein A; 1 mg 4L whole cell extract (native or formaldehyde cross-linked, not told which), lysis buffer 10 mM Tris/HCl pH 7.5, 150 mM NaCl, 0.5 mM EDTA, 0.5% NP-40, overnight at 4 °C; western blot with isoform-specific antibodies.

Results are given in words; binding and its absence hold for the method and conditions named. In cells and extracts the contact can be indirect. Some binding calls cover weakened binding; strength is not graded here. For some assays here: Tags and fused reporters may be left off the sequences shown.

B1: Nuclear Receptor Subfamily 2 Group F, Member 2, isoform 1 (NR2F2-Iso1), full-length NR2F2 (protein, UniProt P24468-1 1-414)
chain: MAMVVSTWRDPQDEVPGSQGSQASQAPPVPGPPPGAPHTPQTPGQGGPASTPAQTAAGGQGGPGGPGSDKQQQQQHIECVVCGDKSSGKHYGQFTCEGCKSFFKRSVRRNLSYTCRANRNCPIDQHHRNQCQYCRLKKCLKVGMRREAVQRGRMPPTQPTHGQFALTNGDPLNCHSYLSGYISLLLRAEPYPTSRFGSQCMQPNNIMGIENICELAARMLFSAVEWARNIPFFPDLQITDQVALLRLTWSELFVLNAAQCSMPLHVAPLLAAAGLHASPMSADRVVAFMDHIRIFQEQVEKLKALHVDSAEYSCLKAIVLFTSDACGLSDVAHVESLQEKSQCALEEYVRSQYPNQPTRFGKLLLRLPSLRTVSSSVIEQLFFVRLVGKTPIETLIRDMLLSGSSFNWPYMAIQ
Regarding B1, the binding entry is listed as “no binding” in assay [1], “no binding” in assay [2], “binds” in assay [3] and “no binding” in assay [4].

B2: Nuclear Receptor Subfamily 2 Group F, Member 2, isoform 2 (NR2F2-Iso2) (protein, UniProt P24468-2 1-281)
chain: MQAVWDLEQGKYGFAVQRGRMPPTQPTHGQFALTNGDPLNCHSYLSGYISLLLRAEPYPTSRFGSQCMQPNNIMGIENICELAARMLFSAVEWARNIPFFPDLQITDQVALLRLTWSELFVLNAAQCSMPLHVAPLLAAAGLHASPMSADRVVAFMDHIRIFQEQVEKLKALHVDSAEYSCLKAIVLFTSDACGLSDVAHVESLQEKSQCALEEYVRSQYPNQPTRFGKLLLRLPSLRTVSSSVIEQLFFVRLVGKTPIETLIRDMLLSGSSFNWPYMAIQ
As for B2, in assay [5], the binding entry is on record as “binds”.
